Results reported in PubChem BioAssay AID1645887 (National Center for Advancing Translational Sciences (NCATS), 2021).
Several values for one entry are separate records, joined by “and”; a condition that tells them apart may be missing. Equal entries are not always repeated. Hit rate of the full screen: of about 16,000 compounds, about 40 (0.2%) were called active. Roughly 1% stayed inconclusive and do not appear here. The call rests on the fitted dose curve; in most records, active means well fitted activation curve with a large enough effect; inconclusive means small, poorly fitted or top-dose-only effect, or another doubt; inactive means no such curve, though single readings can be large or run the other way. This is one part of the list.

These compounds were tested against Rap guanine nucleotide exchange factor 4 (Homo sapiens) (UniProt Q8WZA2) (assay: Validation qHTS for agonist of cAMP-regulated guanine nucleotide exchange factor 4 (EPAC2)). Conditions: EPAC2 Rap1B BODIPY-GDP exchange, fluorescence; activation: active compounds read high.
In short: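 Signal normalized against 6.5 mM cAMP as agonist control. Mix of EPAC2 (100 nM), RAP1B-BODIPY-GDP (250 nM) and GDP (50 uM) was read kinetically at 480/540 nm, every 5 min over 30 min, after 5 min room-temperature incubation with compound.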
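Further: exchange makes BODIPY-GDP fluorescence drop when released from Rap1B; series mostly up to about 150 µM.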
On the % scale 0 is the no-effect control and ±100 the full control effect.

Chain of UniProt Q8WZA2 (Q8WZA2 whole entry, looked up): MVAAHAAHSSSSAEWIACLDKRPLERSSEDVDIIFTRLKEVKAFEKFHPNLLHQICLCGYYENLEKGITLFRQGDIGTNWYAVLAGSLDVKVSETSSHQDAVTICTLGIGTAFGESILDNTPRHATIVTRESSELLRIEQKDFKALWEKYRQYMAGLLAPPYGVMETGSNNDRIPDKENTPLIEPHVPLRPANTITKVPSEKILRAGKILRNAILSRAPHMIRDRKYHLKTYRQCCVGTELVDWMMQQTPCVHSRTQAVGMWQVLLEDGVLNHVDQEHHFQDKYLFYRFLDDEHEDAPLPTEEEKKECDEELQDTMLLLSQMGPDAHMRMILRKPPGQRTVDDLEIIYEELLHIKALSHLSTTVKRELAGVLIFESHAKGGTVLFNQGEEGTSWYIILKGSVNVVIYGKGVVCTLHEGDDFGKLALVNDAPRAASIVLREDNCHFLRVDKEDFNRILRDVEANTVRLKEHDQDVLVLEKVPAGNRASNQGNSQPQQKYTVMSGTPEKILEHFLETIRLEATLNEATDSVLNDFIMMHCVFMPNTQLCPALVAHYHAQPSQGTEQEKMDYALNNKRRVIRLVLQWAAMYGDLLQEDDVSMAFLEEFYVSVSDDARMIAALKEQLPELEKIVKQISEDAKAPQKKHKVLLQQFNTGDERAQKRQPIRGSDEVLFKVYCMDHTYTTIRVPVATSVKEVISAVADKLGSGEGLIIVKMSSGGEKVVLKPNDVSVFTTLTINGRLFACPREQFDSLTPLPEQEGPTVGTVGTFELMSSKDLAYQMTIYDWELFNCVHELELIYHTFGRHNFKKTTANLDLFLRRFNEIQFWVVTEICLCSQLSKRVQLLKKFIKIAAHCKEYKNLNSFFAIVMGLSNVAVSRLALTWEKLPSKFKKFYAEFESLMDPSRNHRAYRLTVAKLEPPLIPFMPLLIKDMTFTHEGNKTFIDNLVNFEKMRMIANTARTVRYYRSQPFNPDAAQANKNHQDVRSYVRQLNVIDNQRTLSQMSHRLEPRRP

activation, inactive:
COc1ccc(CN2CCOc3ccc(CN4CCC(O)(c5cccnc5)CC4)cc3C2)cc1OC -16%
O=C(O)CCc1nc(-c2ccccc2)c(-c2ccccc2)o1 2.82% and -16.4% and -14.8%
N#CC[C@H](Cc1ccccc1)N1CC[C@@H](NC(=O)OCc2ccccc2)CCC1=O -28.7%
Cc1cnc(CNc2ccnc(-c3cccnc3)n2)cn1 1.85%
O=C(NCCN1CCOCC1)c1cnn(-c2nccc(-c3ccccc3C(F)(F)F)n2)c1C1CC1 4.73%
COCCNc1ncnc2ccc(-c3ccc(N(C)C)cc3)cc12 -5.1%
CCCCC/C(C=O)=C\c1ccccc1 7.81%
O=C(Nc1ccccc1)N1CC[C@@]2(CCCN(C(=O)c3cc(C(F)(F)F)cc(C(F)(F)F)c3)C2)C1 -24.1%
Clc1ccc2c(c1)C(N1CCNCC1)=Nc1ccccc1O2 -7.13% and -10.8% and -27.4%
CC(C)N=C(N)/N=C(\N)Nc1ccc(Cl)cc1 8.03%
C[C@@H](CN(C)C[C@H]1C(=O)O[C@@H]2C[C@@]3(C)CCC[C@]4(CO4)C3CC21)[C@H](O)c1ccccc1 (stereo partly drawn) -0.0602%
O=C1c2ccccc2C(=O)C1c1ccccc1 10.4% and 9.12%
Cc1ncc2c(c1CNC(=O)c1ccccc1F)CCN(C(=O)c1[nH]c3ccc(Cl)cc3c1C)C2 7.7%
O=C(Cn1ccnc1[N+](=O)[O-])NCc1ccccc1 -11.2%
CC1(C)OC2C[C@](O)(C(N)=O)C[C@H](O)[C@H]2O1 (stereo partly drawn) -6.74%
COC(=O)c1c(OCc2cccnc2)cc(=O)n2c1CCN(C(=O)c1cccc(N(C)C)c1)CC2 -1.52%
Cc1cccc(CNC(=O)c2cnn(-c3ncc(C)c(-c4ccc(F)cc4)n3)c2C)n1 0.336%
C/C(=C(\CCO)SS/C(CCO)=C(\C)N(C=O)Cc1cnc(C)nc1N)N(C=O)Cc1cnc(C)nc1N 5.18%
CC[C@H]1OC(=O)[C@H](C)[C@@H](O[C@H]2C[C@@](C)(OC)[C@@H](O)[C@H](C)O2)[C@H](C)[C@@H](O[C@@H]2O[C@H](C)C[C@H](N(C)C)[C@H]2O)[C@](C)(O)C[C@@H](C)C(=O)[C@H](C)[C@@H](O)[C@]1(C)O -24.3% and -3.22%
COC(=O)C1C(O)CC[C@H]2CN3CCc4c([nH]c5ccccc45)C3C[C@H]12 (stereo partly drawn) 2.5%
COc1ccc(-n2c(=O)c(-c3ccc(Cl)cc3)nc3cnc(N4CCOCC4)nc32)cc1 -32.8%
COc1ccccc1C(=O)N[C@@H]1c2ccccc2C2(CCN(Cc3cnn(C)c3C)CC2)[C@H]1O -17%
CC(C(=O)O)c1ccc(CC2CCCC2=O)cc1 (stereo not drawn) -2.05% and -15.2%
O=C1CC[C@H](O)CCN1CCSc1ccc(Br)cc1 -22.3%
Cc1ccccc1C(=O)NC(C)c1nnc2n1CCN(Cc1ccnc3ccccc13)CC2 (stereo not drawn) -13.3%
CCOC(=O)C[C@H]1c2cc(F)ccc2S(=O)(=O)N1C(C)C -13.6%
Cc1c(C(=O)N(C)C2CCOC2)cnn1-c1ncc2c(n1)-c1ccccc1CCC2 (stereo not drawn) -4.71%
COc1ccc(CN2CCC3(CC2)c2ccccc2[C@@H](NC(=O)c2ccco2)[C@@H]3OC)c(O)c1 9.16%
CN(C)c1ccc(/C=C2\CCCCC2=O)cc1 -22.4%
COc1ccc(-c2nc3cc(F)ccc3cc2CN(C(=O)c2cccs2)C2CC2)cc1 -25.1%
CC1=C(/C=C/C(C)=C/C=C/C(C)=C/C=C/C=C(C)/C=C/C=C(C)/C=C/C2=C(C)CCCC2(C)C)C(C)(C)CCC1 -16.5%
O=C(Nc1ccccc1)[C@@H]1CC=C[C@@H]2CCN(Cc3ccc(Cl)c(Cl)c3)C(=O)[C@@H]21 -20.3%
COc1ccc(CNc2cc(-c3cccc(NS(C)(=O)=O)c3)ncn2)c(OC)c1 -3.23%
NC(=O)Nc1ccc(/C=C2\C=Cc3ccccc32)cc1 -10.9%
O=C(CCc1ccc(O)cc1)c1c(O)cc(O)cc1O[C@H]1OC(CO)C(O)C(O)C1O (stereo partly drawn) -10.1%
c1ccc(C(O[C@H]2CCCN(CCc3ccc4c(c3)OCO4)C2)c2ccccc2)cc1 1.94%
Cc1nc(N=Nc2cc(S(=O)(=O)O)ccc2S(=O)(=O)O)c(COP(=O)(O)O)c(C=O)c1O -7.72%
CCCCN1CC[C@H]2C=CC[C@@H](C(=O)Nc3ccc(Cl)cc3Cl)[C@H]2C1=O -23.5%
NC(=O)c1ccccc1O -13.3%
COc1ccc2[nH]cc(CCNc3nc(-c4c(C)noc4C)nc4ccccc34)c2c1 6.86%
Cc1cccc2cc(CN(C(=O)c3ccc(-c4ccc(F)cc4)cc3)C3CC3)c(N3CCC(O)CC3)nc12 -12.7%
COc1cc(CN2CCCC(n3cc(C(=O)N4CCCCC4)nn3)C2)cc(OC)c1 (stereo not drawn) -0.628%
COc1ccc(C(=O)CCC(=O)O)c2ccccc12 -25%
CCCN1CC(CSC)C[C@H]2c3cccc4[nH]cc(c34)C[C@H]21 (stereo partly drawn) -14.9%
CCCCN1CCC(n2c(=O)[nH]c3ccccc32)CC1 -59%
O=C(NOCC1CC1)c1ccc(F)c(F)c1Nc1ccc(I)cc1Cl 2.68%
COc1ccc(-c2nc3cnc(N4CCN(C)CC4)nc3n(C3CC3)c2=O)cc1 -5.51%
N[C@H](CC(=O)O)C(=O)O 9.77% and -0.752% and 2.84%
Cc1ccc(SCCN2CCC(O)CCC2=O)cc1 (stereo not drawn) -16.8%
COc1cc2c(cc1OC)C1C(=O)c3c(O)cc4c(c3OC1CO2)C=CC(C)(C)O4 (stereo not drawn) -15.5%
Oc1cc(-c2nc3ccccc3s2)cc2c1OCCN(Cc1cccn1-c1ccc(Cl)cn1)C2 -9.23%
COc1ccccc1C(=O)N[C@@H]1c2ccccc2C2(CCN(Cc3nccs3)CC2)[C@H]1OC 3.24%
COc1cc(O)c2c(=O)cc(-c3ccc(OC)c(-c4c(O)cc(O)c5c(=O)cc(-c6ccc(O)cc6)oc45)c3)oc2c1 -5.99%
Oc1c(Br)cc(Br)c2cccnc12 -8.37%
CCC(=O)O[C@H]1CC[C@H]2[C@@H]3CCc4cc(O)ccc4[C@H]3CC[C@]12C -14.7%
CS(=O)(=O)Nc1cccc(-c2nc(Nc3ccc(F)cc3)c3ccccc3n2)c1 -12.8%
CC(C)NC(=O)N1CC[C@@]2(CCCN(C(=O)c3ccco3)C2)C1 -12.5%
CO[C@@H]1[C@@H](O[C@@H]2O[C@H](C)[C@@H](O[C@H]3C[C@@](C)(O)[C@@H](O)[C@H](C)O3)[C@H](N(C)C)[C@H]2O)[C@@H](CC=O)C[C@@H](C)[C@@H](O[C@@H]2CC[C@H](N(C)C)[C@@H](C)O2)/C=C/C=C/C[C@@H](C)OC(=O)C[C@H]1O -7.58%
CC(C)C(C)/C=C/C(C)C1CCC2C3=CC=C4CC(O)CCC4(C)C3CCC21C (stereo not drawn) -26.7%
CCNc1ncc2nc(CCc3ccccc3)c(=O)n(C3CC3)c2n1 3.1%
CCCC(=O)c1cc(O)c(O)cc1O -14.8%
COc1ccc(-c2coc3cc(O)ccc3c2=O)cc1 2.87% and -11.7%
Cc1cnc(-n2ncc(C(=O)N(C)Cc3cccc4ncccc34)c2C(C)C)nc1-c1ccc(F)cc1 -6.77%
COc1ccccc1CN1CCCC(n2cc(C(=O)N3CCCCC3)nn2)C1 (stereo not drawn) -10.5%
O=c1c(-c2ccccc2)nc2cnc(N3CCNCC3)nc2n1-c1ccccc1 -4.12%
COC(F)(F)C(Cl)Cl -0.274%
O=C1C(c2c(O)[nH]c3ccccc23)=Nc2ccccc21 -7.63% and -4.93% and -0.438%
O=C(c1csnn1)N1CCC2(CCCN(Cc3ccccc3)C2)CC1 -1.97%
COCCn1c(=O)c(-c2cccs2)nc2cnc(N3CCNCC3)nc21 26.7%
O=C([C@@H]1C[C@@H](Sc2nc3ccccc3[nH]2)CN1Cc1c(F)cccc1F)N1CCOCC1 -18.6%
CCOC(=O)c1ccc(NC(=O)CN2CCCCC2)cc1 -10.5%
COc1ccc(CNc2cc(-c3cccnc3)ncn2)c(OC)c1 -9.11%
COCCn1c(=O)c(C)nc2cnc(OCc3ccccc3)nc21 2.44%
O=C(OCCN1CCOCC1)C1(c2ccccc2)CCCCC1 -9.1% and -0.948% and -22.3%
CC(C)C[C@H](NC(=O)[C@H](Cc1ccccc1)NC(=O)c1cnccn1)B(O)O 5.79% and -0.915%
CC(C)CN1CC[C@@]2(CCCN(C(=O)c3cc(C(F)(F)F)cc(C(F)(F)F)c3)C2)C1 -32.9%
CCOC(=O)OC(C)OC(=O)C1N2C(=O)C(NC(=O)C(N)c3ccccc3)C2SC1(C)C (stereo not drawn) 6.33%
COc1cc(OC)c2cc(-c3ccncc3)cnc2c1 -15.1%
